# Assay results reported in PubChem BioAssay AID1768 (National Center for Advancing Translational Sciences (NCATS), 2009).
# Hit rate of the full screen: of about 270,000 compounds, about 620 (0.23%) were called active. Inconclusive means that the source gave no clear call. Such entries were picked first, then a sample of the others. The call rests on the fitted dose curve; in most records, active means well fitted inhibition curve with a large enough effect in the polarisation, with a control signal flat (not every such curve was filed as active); inconclusive means small, poorly fitted or top-dose-only effect, or effect the other way, or a change in a side signal; inactive means no such curve, though single readings can be large or run the other way; the % refers to the polarisation. Potencies beside an inconclusive call are fits to weak or partial responses and may not hold up. A note “side channel” means that the fit belongs to a control or component signal, not to the main read-out.
# Target: Menin (Homo sapiens) (UniProt O00255)
# Chain of UniProt O00255 (O00255 whole entry, looked up): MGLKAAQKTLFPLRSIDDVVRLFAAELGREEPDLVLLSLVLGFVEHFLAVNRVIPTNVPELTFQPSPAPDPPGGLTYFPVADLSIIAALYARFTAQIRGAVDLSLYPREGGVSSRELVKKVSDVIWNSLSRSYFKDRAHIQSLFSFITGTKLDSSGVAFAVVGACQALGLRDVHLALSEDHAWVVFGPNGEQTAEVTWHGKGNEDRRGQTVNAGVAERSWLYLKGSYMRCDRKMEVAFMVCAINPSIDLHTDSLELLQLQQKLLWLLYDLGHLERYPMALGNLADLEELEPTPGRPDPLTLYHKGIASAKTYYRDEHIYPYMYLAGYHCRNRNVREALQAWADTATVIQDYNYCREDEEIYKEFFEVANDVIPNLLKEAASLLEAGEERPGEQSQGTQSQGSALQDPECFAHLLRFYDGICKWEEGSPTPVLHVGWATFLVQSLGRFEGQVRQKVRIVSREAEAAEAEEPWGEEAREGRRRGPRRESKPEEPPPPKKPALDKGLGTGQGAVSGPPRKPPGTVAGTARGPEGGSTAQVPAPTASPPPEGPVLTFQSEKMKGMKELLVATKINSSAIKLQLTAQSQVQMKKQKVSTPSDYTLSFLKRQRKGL
# Assay: qHTS Assay for Inhibitors Targeting the Menin-MLL Interaction in MLL Related Leukemias: Competition With Texas Red Labeled MLL-derived Mutant Peptide; on FP activity change, negative = inhibition: % of control where 0% means no effect
# Conditions: fluorescence polarization; FP activity change, negative = inhibition: at 61.6 µM (top of the series)
# Potency means the concentration at half of the fitted maximal effect; tags describe the fitted curve by direction and shape or compound fluorescence and quenching.
Compound,Potency,"FP activity change, negative = inhibition"
CC(=O)Nc1nc(-c2ccc3c(c2)CCN3S(C)(=O)=O)cs1,"inconclusive: 22.4 µM [quencher, side channel, partial curve]",
c1ccc(Cn2nnnc2C(c2ccccn2)N2CCN(c3ccccc3)CC2)cc1 (configuration not stated),"inconclusive: 20 µM [fluorescent, side channel, single point]",
COc1cc(C(=O)Nc2cc(-c3ccccc3)[nH]n2)cc(OC)c1OC,"inconclusive: 8.91 µM [quencher, side channel, partial curve]",
O=C(CCN1C(=O)/C(=C/c2cccs2)SC1=S)NC1=NCCS1,inactive,
COc1ccc(/C=C2\C(=O)NC(=S)N2C(=O)c2ccc(C)cc2)cc1,"inconclusive: 20 µM [quencher, side channel, single point]",
Oc1ccc(-c2csc(Nc3cccc4ccccc34)n2)cc1O,"inconclusive: 14.1 µM [quencher, side channel, partial curve]",
COc1ccc(Nc2nc(-c3cccs3)nc3ccccc23)cc1,"inconclusive: 6.31 µM [quencher, side channel, partial curve]",
CCN1CCN(c2nc3c(C)cccn3c(=O)c2/C=C(\C#N)C(=O)NC)CC1,"inconclusive: 44.7 µM [inhibitor, partial curve]",
O=c1c2c([N+](=O)[O-])cc([N+](=O)[O-])cc2nc2ccccn12,"inconclusive: 22.4 µM [quencher, side channel, single point]",
C=C(C)CN(CC)C(=O)CN1C(=O)NC(C)(c2ccc3ccccc3c2)C1=O (configuration not stated),inactive,
CC1CCN(CC(O)CN2c3ccccc3Sc3ccccc32)CC1 (configuration not stated),"inconclusive: 14.1 µM [inhibitor, partial curve]",
O=[N+]([O-])c1ccccc1/C=C/C=N/Nc1nc(N2CCCCC2)nc(N2CCCCC2)n1,"inconclusive: 22.4 µM [inhibitor, partial curve]",
COC(=O)N/N=C/c1cn(Cc2ccccc2Cl)c2ccccc12,"inconclusive: 25.1 µM [quencher, side channel, single point]",
COc1ccc(C2CC(=O)N3CN(Cc4ccco4)CSC3=C2C#N)cc1 (configuration not stated),"inconclusive: 15.8 µM [quencher, side channel, partial curve]",
Cc1nc(Nc2ccccc2)sc1-c1ccccc1,"inconclusive: 22.4 µM [quencher, side channel, single point]",
COc1ccccc1NC(=O)c1ccc(NC(=O)C2COc3ccccc3O2)cc1 (configuration not stated),"inconclusive: 35.5 µM [quencher, side channel, single point]",
COc1cc(/C=C2\SC(=O)N(c3cccc(Cl)c3)C2=O)cc([N+](=O)[O-])c1O,"inconclusive: 3.98 µM [quencher, side channel, full curve]",
COc1cc2c(C(=O)NCCCN3CCN(c4cccc(Cl)c4)CC3)cn(C)c(=O)c2cc1OC,"inconclusive: 22.4 µM [fluorescent, side channel, single point]",
COc1ccc(CCNc2nc(-c3ccc(O)cc3)cs2)cc1OC,"inconclusive: 22.4 µM [quencher, side channel, partial curve]",

Compound,Potency,"FP activity change, negative = inhibition"
O=C(/C=C/c1ccc([N+](=O)[O-])cc1)NCCSc1ccccc1,"inconclusive: 31.6 µM [quencher, side channel, single point]",
COc1ccc(OC)c(NC(=O)Nc2ccc3c(c2)OCO3)c1,"inconclusive: 25.1 µM [quencher, side channel, partial curve]",
O=C(Cn1c(-c2cscn2)nc2ccccc21)Nc1ccc(Cl)cc1,"inconclusive: 39.8 µM [quencher, side channel, single point]",
CCOP(=O)(OCC)C(Nc1cccc(C(F)(F)F)c1)c1ccc(F)cc1 (configuration not stated),"inconclusive: 39.8 µM [fluorescent, side channel, single point]",
CCOc1ccc(NC(=O)CN2CCN(Cc3c(F)cccc3F)CC2)cc1,"inconclusive: 39.8 µM [inhibitor, single point]",
CC(=O)Nc1cccc(-c2nc3ccccc3[nH]2)c1,"inconclusive: 28.2 µM [fluorescent, side channel, partial curve]",
CN/N=C(\Cc1nc2ccccc2[nH]1)c1ccc([N+](=O)[O-])cc1,"inconclusive: 12.6 µM [quencher, side channel, partial curve]",
CCCCOc1cccc(-c2cc(C(=O)NNC(=S)NCC)c3ccccc3n2)c1,"inconclusive: 28.2 µM [quencher, side channel, partial curve]",
COc1ccccc1N1CCN(C(=O)CN(CCc2ccccc2)S(C)(=O)=O)CC1,"inconclusive: 8.91 µM [inhibitor, full curve, poor fit]",
CCC(C)NC(=O)Nc1ccc(Br)cc1 (configuration not stated),inactive,
COc1cc2cc(C(=O)N/N=C/c3ccccc3Cl)[nH]c2cc1OC,"inconclusive: 10 µM [quencher, side channel, partial curve]",
CSc1nc2c(c(=O)[nH]c(=O)n2C)n1CCCc1ccccc1,"inconclusive: 39.8 µM [inhibitor, single point]",
COc1cc(S(=O)(=O)NC2CCCCC2)ccc1Cl,inactive,
N#CC1(P(=O)(c2ccccc2)c2ccccc2)CCCC1,inactive,
Cc1ccc(NC(=S)Nc2ccc(Br)cc2)cc1,"inconclusive: 39.8 µM [inhibitor, single point]",
CCN1CCN(c2cc(C)c3cc(NC(=O)CCC(=O)Nc4ccc(OC)c(OC)c4)ccc3n2)CC1,inactive,
CCOC(=O)C1CCCN(C(=O)c2ccc3nc(-c4cccc(OC)c4)oc3c2)C1 (configuration not stated),"inconclusive: 3.98 µM [fluorescent, side channel, partial curve]",
O=C(Nc1cccc(-c2nn[nH]n2)c1)c1ccc(Cl)s1,"inconclusive: 28.2 µM [quencher, side channel, single point]",
CCCC(C)C(=O)Nc1ncc(S(=O)(=O)c2ccc([N+](=O)[O-])cc2)s1 (configuration not stated),"inconclusive: 12.6 µM [quencher, side channel, partial curve]",

Compound,Potency,"FP activity change, negative = inhibition"
O=S(=O)(Nc1ccc2c(c1)CCC2)c1cccs1,"inconclusive: 17.8 µM [quencher, side channel, single point]",
CO[C@H]1COC(=O)C/C=C\[C@H](C)[C@@H](OC)COC(=O)[C@H](C)COC(=O)C/C=C\[C@@H]1C,,inactive: 0.462% [at 11.7 µM]
C=CCN1C(=O)/C(=C/C=C2/N(CC)c3ccc(S(=O)(=O)N(C)C)cc3N2CC)SC1=S,"inconclusive: 28.2 µM [fluorescent, partial curve]",
CCCCCOC(=O)CSc1nnc(-c2ccccc2)c(=O)[nH]1,"inconclusive: 25.1 µM [quencher, side channel, single point]",
Cc1nc2cc(-c3cccs3)nn2c(NCC(C)(C)CN(C)C)c1C,"inconclusive: 14.1 µM [fluorescent, side channel, partial curve, poor fit]",
CCN(CC)c1ccc(/C=C(/C#N)c2nc3ccc(C)cc3[nH]2)c(OC(C)C)c1,inactive,
O=C1C(Cl)=C(N2CCCCC2)C(=O)C(Cl)=C1c1cnc(N2CCCCC2)s1,"inconclusive: 20 µM [quencher, side channel, partial curve]",
O=C(NNC(=O)c1cc2ccccc2cc1O)c1cccs1,"inconclusive: 31.6 µM [quencher, side channel, single point]",
Cc1cc(C)cc(NC(=O)Cn2cnc3c(nnn3Cc3ccc(F)cc3)c2=O)c1,"inconclusive: 8.91 µM [inhibitor, partial curve]",
CCOc1ccc(NC(=O)c2sc(NC(C)=O)c(C(=O)OC)c2C)cc1,"inconclusive: 35.5 µM [fluorescent, side channel, single point]",
CCn1c(CC(=O)Nc2ccc(F)cc2)nnc1SCC(=O)NC1=NCCS1,"inconclusive: 6.31 µM [quencher, side channel, full curve]",
C/C(=N\NC(=O)CSCc1ccccc1Cl)c1cc(O)ccc1O,"inconclusive: 15.8 µM [quencher, side channel, partial curve]",
CCOC(=O)C1=C(C)N=c2s/c(=C\c3cccc(OCC(=O)O)c3)c(=O)n2C1c1ccccc1OC (configuration not stated),"inconclusive: 20 µM [quencher, side channel, partial curve]",
CCN(CC)c1ccc2c(Cl)cc(=O)oc2c1,"inconclusive: 15.8 µM [fluorescent, side channel, partial curve]",
O=C(Nc1nccs1)c1ccc(-c2ccccc2Cl)o1,"inconclusive: 11.2 µM [quencher, side channel, partial curve]",
CCCCn1nnc(NC(=O)c2ccc(-c3ccccc3)cc2)n1,"inconclusive: 31.6 µM [inhibitor, partial curve]",
CCS(=O)(=O)Nc1c(C(=O)O)[nH]c2ccccc12,"inconclusive: 28.2 µM [quencher, side channel, single point]",
CN1CCN(CC(O)COC(c2ccc(Cl)cc2)c2ccc(Cl)cc2)CC1 (configuration not stated),"inconclusive: 14.1 µM [fluorescent, side channel, partial curve]",
CCOC(=O)CN(C)Cc1cn[nH]c1-c1ccc2cc(OC)ccc2c1,"inconclusive: 25.1 µM [fluorescent, side channel, partial curve]",
